Assay results: paper PMC12136788
Some of the results follow.

T1: UNK ZnF1-3 (human, UniProt Q9C0B0 31-174)
T1 sequence: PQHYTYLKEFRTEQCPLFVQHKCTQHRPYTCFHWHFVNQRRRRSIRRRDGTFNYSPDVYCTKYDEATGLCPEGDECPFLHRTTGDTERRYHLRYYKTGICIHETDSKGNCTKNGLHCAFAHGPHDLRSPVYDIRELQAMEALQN

B1: chr4:95690885:95690886:+_ENSMUSG00000028572_ENSMUST00000156910|mus_mus|mus_mus_mus_hu_False|58_108 (ssRNA)
RNA: GGGAGUUCUACAGUCCGACGAUCUUUAUUUUUAGAAAAAUACCAUGCUAAAAUAUUUUCAAAGGCUUAUUUUAUUUUACUAAAAGACACAGGCAAGCAGACACUACAAGAAUAUAUGAAAAUGAAACUCAACAAUAUAACUGUCAACAGAGGAUUGAGCAUCA
B2: chr17:65740002:65740003:+_ENSG00000130935_ENST00000581375|hu_hu|hu_hu_hu_mus_False|8_18 (ssRNA)
RNA: GGGAGUUCUACAGUCCGACGAUCAACAAAUCUUUCUUCCCUGGACGAACAGGAAGAUUCAUAUUAAAAAAAAUAUAUAUCCAUCAAGUUAGGUGUGGUGGCCACACCUUUACUCCCCACUUCAAUUGAAUAUAAUCUCUGAGUCAACAGAGGAUUGAGCAUCA
B3: chr12:74934348:74934349:+_ENSG00000253719_ENST00000519948|hu_hu|FALSE|FALSE (ssRNA)
RNA: GGGAGUUCUACAGUCCGACGAUCUUAUUUUAGCUCUUGCCAAGGUUUGAUUUUUUUUAAGUUAAUGCAAUUCUUUAAGACUAAUCUGUAACUAGGCCCCAAGCCUGAUCAGGACAACUCUAGGACAAGGCAGUAACAGUUCCACAACAGAGGAUUGAGCAUCA
B4: chr2:202488911:202488912:-_ENSG00000155755_ENST00000286196|hu_mus|FALSE|FALSE (ssRNA)
RNA: GGGAGUUCUACAGUCCGACGAUCAUUGAAACAUUUUUCAUAAUCUCCAGUAGCAUUUCAGCAUUAUGUAACAAAAGCUCAAUUGUAAAUACAUGUAUCUUAUAAAAAUACACUUAAAAACACGAGUGGGGAGCGCAGGCGCCACAACAGAGGAUUGAGCAUCA
B5: chr1:145592185:145592186:+_ENSMUSG00000018196_ENSMUST00000111957|mus_mus|FALSE|FALSE (ssRNA)
RNA: GGGAGUUCUACAGUCCGACGAUCGGCCAUGGAACAGUAAGAGCAGGAUGUUUUUGAGAAGAUCACCACACAAUUGUUAGAAAUUGUUUCUUGGAUCUGGUUCACAGGAGUAGUUGUAGACUUCCCCCAAAACGACGAUGUGCUCAACAGAGGAUUGAGCAUCA
B6: chr11:80196919:80196920:+_ENSMUSG00000017421_ENSMUST00000017567|mus_hu|FALSE|FALSE (ssRNA)
RNA: GGGAGUUCUACAGUCCGACGAUCUUCUUCUUCUUGCGACCCAUAACUGUGUUCUACCGGCAAAGUAAAAGGGAGGAGAAAAGAAGCAGGAGAAACGAGGCCAAAAAUCCCUCACUUUCCCAACCCAACGGCUACCACCACGUCCAACAGAGGAUUGAGCAUCA
B7: chr8:95952310:95952311:-_ENSG00000164938_ENST00000448464|hu_hu|FALSE|FALSE (ssRNA)
RNA: GGGAGUUCUACAGUCCGACGAUCUGGGGGUGGGGUGAUAAACCAGCUCUCCUCCAUUGGACAUGACUCAAACUGGAGAAAGCAGGAAUCACUUGUAUCAGCCAAGCACUCAAGAGAUGCCGGUAAACAGGAAAAGACUGAAGGCAACAGAGGAUUGAGCAUCA
B8: chr14:63761926:63761927:+_ENSMUSG00000021939_ENSMUST00000006235|mus_mus|FALSE|FALSE (ssRNA)
RNA: GGGAGUUCUACAGUCCGACGAUCCUGCCAAUGUCAAGCAGAGGGAGAAUUGGUUUAUUGGCACAGACAUUCCUUGUUAAACUACAGGGUUAAGUGGUAACUACAACAAAAAGCAAGUUUUUUUUUCCAGACUAGUUUCAUUGUCAACAGAGGAUUGAGCAUCA
B9: chr14:89338683:89338684:+_ENSG00000165533_ENST00000346301|hu_hu|hu_hu_hu_mus_False|98_98 (ssRNA)
RNA: GGGAGUUCUACAGUCCGACGAUCGUGGUUGUUGUGGACCAGAGCCAGCCUGAAGCAUUGGUGGGCCAAGUUUGUAUCUCCGAUUCCCACAGCUAUGUGCCCCAGGUUGUACCAGACAUCAGCUGCCUCUUCUUCAUUUUCAGCCAACAGAGGAUUGAGCAUCA
B10: chr7:54823571:54823572:-_ENSG00000132432_ENST00000352861|hu_mus|hu_hu_hu_mus_False|28_48 (ssRNA)
RNA: GGGAGUUCUACAGUCCGACGAUCUCCCAUGAUAGCAAAUCCUAUAGCUGUAGCCAUGGCAAUCUUCUGGAAUUCUUUUCUGUCGGGUUUAGUGCAUCUUUUAACCAGCCGAAUGGAGUCCUUUACAAACUGCCGGCUGGGCUCCAACAGAGGAUUGAGCAUCA
B11: chr11:96688998:96688999:-_ENSMUSG00000038615_ENSMUST00000081775|mus_hu|FALSE|FALSE (ssRNA)
RNA: GGGAGUUCUACAGUCCGACGAUCCCACCCGUACCCCAAUCAAACUCAGCAGAAUGGUGAACUGGAGAAGUCCUUCCGUUAAGUAUUUCUUCAGAGAAAGCAUUGCUGAAGGACCAGAAUGUUUAUGCUUUUUGGUUUUUAAAACAACAGAGGAUUGAGCAUCA
B12: chr5:92386950:92386951:-_ENSMUSG00000029397_ENSMUST00000031345|mus_mus|FALSE|FALSE (ssRNA)
RNA: GGGAGUUCUACAGUCCGACGAUCCUGCUGGGCAUGUUGGAGUUUUUCACAGUUGAUGCACUGCACUUCCUUGACUUUGAAACGAUCUAGCUGAUGAUCUUCAUUGGUAUCGUGACACAGCCGGCAGGUAUAAAGCUUGUCACACAACAGAGGAUUGAGCAUCA
B13: chr14:21838049:21838050:-_ENSG00000092201_ENST00000216297|hu_mus|motif|central (ssRNA)
RNA: GGGAGUUCUACAGUCCGACGAUCGUUGAGCUCACCGUCCUCUUUCACAGCAAUGGUGUAUGCCACAACAGCGCUGAUGUCGGCUUUGUCAAAGCCCUCCUUGUUGAGACAAUCACUCCAGCUCUUCAUGAACUCUCCAGGGAACAACAGAGGAUUGAGCAUCA
B14: 173317039_173317159_757_CDS_ENSG00000113742_ENST00000334035|human|control|control (ssRNA)
RNA: GGGAGUUCUACAGUCCGACGAUCUGUCAACACUGGAGAUUCGAUCCUUAUUUUCUCCUUCCCAUUGCCAUUUUCCGAAGAAUUGUCCCCUUGAUUUUCUUCUGAUUUUGCCUUCUCUGUUUCAGGCAGUAUUCCAGCUUCCUGCAACAGAGGAUUGAGCAUCA

Biological target: T1, UNK ZnF1-3
Assay: nsRBNS (natural sequence RNA bind-n-seq); RBNS binding buffer (assumed for nsRBNS): 25 mM Tris pH 7.5, 150 mM KCl, 3 mM MgCl2, 0.01% Triton X-100, 500 ug/ml BSA, 20 U/ml SUPERase-In, 4 C; UNK is unkempt and MSI1 is Musashi-1; names of the RNAs are library labels; protein concentration not given here; high values mean tight binding

In order of falling binding signal:
1. B1  1.63 enrichment R
2. B2  1.63 enrichment R
3. B6  1.33 enrichment R
4. B13  1.26 enrichment R
5. B7  1.23 enrichment R
6. B8  1.12 enrichment R
7. B11  1.11 enrichment R
8. B5  0.972 enrichment R
9. B3  0.854 enrichment R
10. B4  0.826 enrichment R
11. B10  0.708 enrichment R
12. B9  0.676 enrichment R
13. B12  0.617 enrichment R
14. B14  0.349 enrichment R
